Data as given in the domain aggregation screens of Martell et al. (2025).

assay: soluble fraction after stress (log2 fold change); higher = more stays soluble; pooled small domains, quantitative proteomics; conditions: stress: pH 4
In short: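 High-throughput quantitative proteomics was run on pooled custom libraries of small protein domains following pH 4 stress. Fold changes are on a log2 scale; higher values mean more of a domain remained soluble. The fold change in soluble amount is taken as a measure of aggregation propensity.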

In order of rising “soluble fraction (log2)” value:
1. HMRADRLISLVLLLQTRGRMTARELADELEVTERTIYRDVIALSSAGIPLYTDRGPGGGIALLDS  -1.24
2. HMATGTVKWFNSTKGYGFIAPDDGGKDIFVHISAVERAGLTGLQDNQKIDFEMQSGRDGRASASDLKL  -0.628
3. HMGGYEVQSGDTLWDLAVRFYGSGAKASAIYEANRDVIEEEAKKRGKGSSSSGYWIFPGTKLAI  -0.412
4. HMSGKWALLVLFTLNKSNGTPVRFKQLERDIPDISQKMLTSVLRSLESDGLVSRKAYAEIPPRVEYSLT  -0.252
5. HMLFDTARAYTDSEVKLGEAFDGIRTEVYIATKTAAQNAEDFWKDLHTSLTNLRTDYIDLYQFH  -0.104
6. HMAAVLKQGSQGDSVKTVQQKLIRWGYLKGSADGIFGAKTKAAVIAFQKKNGLTADGIIGTRTAQALGISL  -0.0885
7. HMALDYYGVLGVNQDATNREIKSAYRKLARELHPDVNPSEEAAEKFKDVTTAYEVLSDPEKRRIVDMGGDP  -0.00801
8. HMNNLYETLGVERTASQNEIKKAYRVLARKYHPDANPDDAVAEQKFKEVAMAYEILSDDQKREEYDRFGS  0.081
9. HMSENDYAILGVKESDSNEEIKKAFRRLAIENHPDKIEHLGETARKKAELNFSKINEAYQRIKKQRG  0.131
